Data: PubChem BioAssay (NCATS)
Inconclusive means that the source gave no clear call. Such entries were picked first, then a sample of the others. For some assays here: Where the call is inconclusive, the potency comes from a doubtful curve fit. Calls of active or inactive are those of the source. Calls come from the whole dose curve; as a rule, active = well fitted curve in the direction sought with a large enough effect; inconclusive = small, poorly fitted or top-dose-only effect, or another doubt; inactive = no such curve, though single readings can be large; an effect the other way counts as inactive or inconclusive.

Assays:
[1] = qHTS of pediatric cancer cell lines to identify multiple opportunities for drug repurposing: Primary screen for DAOY cells (AID 1347090); details: DAOY medulloblastoma viability, CellTiter-Glo luminescence, 48 h; activity change, negative = cytotoxic: at 46 µM (top of the series); note: nearly all actives have a fitted effect of over 55% in size;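 for activity change, negative = cytotoxic: plate controls were DMSO for no effect and bortezomib for full effect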
How it was run: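 Cell viability, CellTiter-Glo luminescence; 500-1,000 cells/well, 8- or 11-point titration, 48 h compound exposure at 37 degrees C, 5% CO2. Controls: DMSO neutral, bortezomib 2.3 µM final as positive.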

[2] = qHTS of pediatric cancer cell lines to identify multiple opportunities for drug repurposing: Primary screen for BT-37 cells (AID 1347094);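 for activity change, negative = cytotoxic: plate controls were DMSO for no effect and bortezomib for full effect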
How it was run: (§1)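 500-1,000 cells/well; 5 h pre-incubation 37 °C/5% CO2; compound pinned; 48 h; CellTiter-Glo, 15 min RT; luminescence. MIPE 11-pt from 0.78 nM, NPC 8-pt from 0.59 nM final. Bortezomib 2.3 µM final as positive control.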

[3] = qHTS of pediatric cancer cell lines to identify multiple opportunities for drug repurposing: Primary screen for NB-EBc1 cells (AID 1347095)
How it was run: as §1

[4] = qHTS of pediatric cancer cell lines to identify multiple opportunities for drug repurposing: Primary screen for Saos-2 cells (AID 1347097); note: nearly all actives have a fitted effect of over 40% in size; for activity change, negative = cytotoxic: % is set by controls: 0 for no effect and ±100 for the full control effect
How it was run: as §1

[5] = qHTS of pediatric cancer cell lines to identify multiple opportunities for drug repurposing: Primary screen for SK-N-SH cells (AID 1347098); note: nearly all actives have a fitted effect of over 65% in size
How it was run: (§2)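 Cells (500-1,000/well) rested 5 h, then received compounds for 48 h; metabolically active cells were measured by CellTiter-Glo luminescence. Final concentrations spanned up to 46 µM (MIPE, 11-point) or 0.59 nM-46 µM (NPC, 8-point) in primary screens, 11-point in follow-ups.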

[6] = qHTS of pediatric cancer cell lines to identify multiple opportunities for drug repurposing: Primary screen for NB1643 cells (AID 1347099); note: nearly all actives have a fitted effect of over 50% in size;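 for activity change, negative = cytotoxic: plate controls were DMSO neutral control for no effect and bortezomib positive control for full effect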
How it was run: as §1

[7] = qHTS of pediatric cancer cell lines to identify multiple opportunities for drug repurposing: Primary screen for LAN-5 cells (AID 1347100); details: LAN-5 neuroblastoma viability, CellTiter-Glo luminescence, 48 h; activity change, negative = cytotoxic: at 46 µM (top of the series)
How it was run: as §2

[8] = qHTS of pediatric cancer cell lines to identify multiple opportunities for drug repurposing: Primary screen for BT-12 cells (AID 1347101); note: nearly all actives have a fitted effect of over 25% in size;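 for activity change, negative = cytotoxic: plate controls were DMSO for no effect and bortezomib positive control for full effect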
How it was run: as §2

[9] = qHTS of pediatric cancer cell lines to identify multiple opportunities for drug repurposing: Primary screen for RD cells (AID 1347104); note: nearly all actives have a fitted effect of over 55% in size
How it was run: as §1

[10] = qHTS of pediatric cancer cell lines to identify multiple opportunities for drug repurposing: Primary screen for Rh41 cells (AID 1347108); note: nearly all actives have a fitted effect of over 70% in size
How it was run: as §1

[11] = qHTS of pediatric cancer cell lines to identify multiple opportunities for drug repurposing: Primary screen for U-2 OS cells (AID 1347096); note: nearly all actives have a fitted effect of over 50% in size;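 for activity change, negative = cytotoxic: plate controls were DMSO wells for no effect and bortezomib positive control wells for full effect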
How it was run: as §2

[12] = qHTS of pediatric cancer cell lines to identify multiple opportunities for drug repurposing: Primary screen for OHS-50 cells (AID 1347103); note: nearly all actives have a fitted effect of over 40% in size
How it was run: as §2

[13] = qHTS of pediatric cancer cell lines to identify multiple opportunities for drug repurposing: Primary screen for Rh30 cells (AID 1347107); note: nearly all actives have a fitted effect of over 75% in size
How it was run: as §2

[14] = qHTS of pediatric cancer cell lines to identify multiple opportunities for drug repurposing: Primary screen for Rh18 cells (AID 1347102); note: nearly all actives have a fitted effect of over 65% in size
How it was run: as §2

[15] = qHTS of pediatric cancer cell lines to identify multiple opportunities for drug repurposing: Primary screen for control Hh wild type fibroblast cells (AID 1347106); note: nearly all actives have a fitted effect of over 55% in size;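 for activity change, negative = cytotoxic: % is set by controls: 0 for no effect and ±100 for the full control effect; a drop in luminescence marks cytotoxicity and a rise apparent proliferation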
How it was run: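 Viability after 48 h compound treatment at 37C, 500-1,000 cells/well, read as ATP luminescence with CellTiter-Glo. Primary screens used 11-point (MIPE, 0.78 nM-46 µM) or 8-point (NPC, 0.59 nM-46 µM) final concentrations; follow-up screens used 11-point dilutions.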

[16] = qHTS of pediatric cancer cell lines to identify multiple opportunities for drug repurposing: Confirmatory screen for NB1643 cells (AID 1347109); details: NB1643 neuroblastoma cell viability; activity change, negative = cytotoxic: at 45.9 µM (top of the series); note: nearly all actives have a fitted effect of over 45% in size
How it was run: as §2

[17] = qHTS of pediatric cancer cell lines to identify multiple opportunities for drug repurposing: Primary screen for MG 63 (6-TG R) cells (AID 1347105); details: MG 63 (6-TG R) viability, CellTiter-Glo, 48 h; activity change, negative = cytotoxic: at 46 µM (top of the series); note: nearly all actives have a fitted effect of over 50% in size
How it was run: as §1
Potency is the fitted concentration of half-maximal effect; tags give direction and shape of the fitted curve.

CC=C(C(=CC)c1ccc(O)cc1)c1ccc(O)cc1
active: Potency [4] 18.7 µM
inconclusive: Potency [1] 29.6 µM [cytotoxic, single point] | Potency [2] 24.3 µM [cytotoxic, single point] | Potency [3] 20.9 µM [cytotoxic, partial curve] | Potency [5] 15.2 µM [cytotoxic, partial curve] | Potency [6] 9.35 µM [cytotoxic, full curve] | Potency [7] 29.6 µM [cytotoxic, single point] | Potency [8] 21.7 µM [cytotoxic, partial curve] | Potency [9] 33.2 µM [cytotoxic, single point] | Potency [10] 23.5 µM [cytotoxic, single point]

COc1ccc(Cn2ccc3ccc(C(=O)NO)cc32)cc1
inconclusive: Potency [1] 23.5 µM [cytotoxic, single point] | Potency [2] 24.3 µM [cytotoxic, partial curve] | Potency [11] 14.8 µM [cytotoxic, partial curve, poor fit] | Potency [8] 24.3 µM [cytotoxic, partial curve] | Potency [12] 19.3 µM [cytotoxic, partial curve] | Potency [9] 20.9 µM [cytotoxic, partial curve] | Potency [13] 5.9 µM [cytotoxic, partial curve]
active: Potency [6] 14.8 µM | Potency [7] 20.9 µM

CO[C@H]1/C=C\O[C@@]2(C)Oc3c(C)c(O)c4c(O)c(c(C=NN5CCN(C6CCCC6)CC5)c(O)c4c3C2=O)NC(=O)C(C)=CC=C[C@H](C)[C@H](O)[C@@H](C)[C@@H](O)[C@@H](C)[C@H](OC(C)=O)[C@H]1C
inconclusive: Potency [15] 0.332 µM [cytotoxic, full curve] | Potency [13] 0.59 µM [cytotoxic, full curve]
active: Potency [1] 0.296 µM | Potency [3] 0.001 µM | Potency [4] 0.0935 µM | Potency [6] 0.0105 µM | Potency [8] 0.137 µM | Potency [14] 0.118 µM | Potency [10] 0.148 µM | Potency [16] 23.3 µM

CNc1nccc(-c2cccnc2Oc2cc(C(=O)Nc3cccc(C(F)(F)F)c3)ccc2C)n1
active: Potency [1] 14.8 µM | Potency [11] 11.8 µM | Potency [8] 19.3 µM | Potency [14] 18.7 µM | Potency [17] 4.69 µM
inconclusive: Potency [2] 21.7 µM [cytotoxic, partial curve] | Potency [15] 5.9 µM [cytotoxic, full curve, poor fit] | Potency [10] 18.7 µM [cytotoxic, partial curve]

NC(=NCCCCCCN=C(N)N=C(N)Nc1ccc(Cl)cc1)N=C(N)Nc1ccc(Cl)cc1
inconclusive: Potency [2] 34.3 µM [cytotoxic, single point] | Potency [7] 33.2 µM [cytotoxic, single point] | Potency [12] 21.7 µM [cytotoxic, single point]
inactive: Potency [11]
active: Potency [1] 5.9 µM | Potency [5] 21.5 µM | Potency [15] 8.33 µM | Potency [10] 7.43 µM

COc1ccc(CC2c3cc(OC)c(OC)cc3CC[N+]2(C)CCC(=O)OCCCCCOC(=O)CC[N+]2(C)CCc3cc(OC)c(OC)cc3C2Cc2ccc(OC)c(OC)c2)cc1OC (centres undefined)
inactive: activity change, negative = cytotoxic [1] -5.91% [at 9.22 µM] | activity change, negative = cytotoxic [2] 6.03% [at 11.5 µM] | activity change, negative = cytotoxic [4] 4.71% [at 9.22 µM] | activity change, negative = cytotoxic [6] 1.38% [at 9.22 µM] | activity change, negative = cytotoxic [8] 7.29% [at 11.5 µM] | activity change, negative = cytotoxic [15] -1.39% [at 9.22 µM]

FC(F)c1nc2ccccc2n1-c1nc(N2CCOCC2)nc(N2CCOCC2)n1
active: Potency [4] 0.526 µM | Potency [14] 0.935 µM | Potency [10] 1.48 µM
inconclusive: Potency [1] 0.235 µM [cytotoxic, full curve] | Potency [11] 0.372 µM [cytotoxic, full curve] | Potency [5] 0.121 µM [cytotoxic, full curve] | Potency [15] 9.35 µM [cytotoxic, partial curve, poor fit] | Potency [13] 1.87 µM [cytotoxic, full curve]
